This note sets out measurements from patent US12103979B2, “N-acetylated and non-acetylated dipeptides containing arginine to reduce the viscosity of viscous compositions of therapeutic polypeptides” (AMGEN INC., priority 2017, dated 2024).

Data set [1] is described as follows: Viscosity of therapeutic antibodies of Table 1 at exemplary concentration. As to conditions: at the Conc. (133.9-162.5 mg/ml). Type of data set: physicochemical.
Data set [2] is described as follows: pI of therapeutic antibodies of Table 1. Type of data set: physicochemical.

B1: CGRPR: therapeutic antibody; IgG2, Lambda; LC SEQ ID NO 5, HC SEQ ID NO 6 (antibody, listed as Homo sapiens)
heavy: MDMRVPAQLLGLLLLWLRGARC[about 100 residues omitted here]DRTGYSISWSSYYYYYGMDVWGQGTTVTVSSASTKGPSVFPLAPCSRSTSESTAALGCLVKDYFPEPVTVSWNSGALTSGVHTFPAVLQSSGLYSLSSVVTVPSSNFGTQTYTCNVDHKPSNTKVDKTVERKCCVECPPCPAPPVAGPSVFLFPPKPKDTLMISRTPEVTCVVVDVSHEDPEVQFNWYVDGVEVHNAKTKPREEQFNSTFRVVSVLTVVHQDWLNGKEYKCKVSNKGLPAPIEKTISKTKGQPREPQVYTLPPSREEMTKNQVSLTCLVKGFYPSDIAVEWESNGQPENNYKTTPPMLDSDGSFFLYSKLTVDKSRWQQGNVFSCSVMHEALHNHYTQKSLSLSPGK
light: MAWALLLLTLLTQDTGSWAQSVLTQSPSASGTPGQRVTISCSGSSSNIGSNYVYWYQQLPGAAPKLLILRNNQRPSGVPDRFSGSKSGTSASLTISGLRSEDEADYYCAAWDDSLSGWVFGGGTKLTVLGQPKANPTVTLFPPSSEELQANKATLVCLISDFYPGAVTVAWKADGSPVKAGVETTKPSKQSNNKYAASSYLSLTPEQWKSHRSYSCQVTHEGSTVEKTVAPTECS
Regarding B1, the “Viscosity (cP)” value in data set [1] was determined as 6.3 cP. This molecule also came in with a pl in data set [2] of 8.6.
